Experimental findings from the supplement of paper PMC9446081 are described below.

Structures are written as SMILES. Screen size: about 39,000 compounds; about 220 (0.56%) showed activity. The list shows a part of the results.
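Further: static incubation at 37 °C against the wild-type strain, values averaged over two biological replicates.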

The experiment has as its system Escherichia coli K-12 BW25113. The experiment in a line: relative growth (OD600 normalised to plate interquartile mean) (fraction); higher = less growth inhibition, active = 0.2 or less. The following applies: 50 µM; LB; incubation time: overnight (16-24 h).
`COc1ccc(S(=O)(=O)N(C)C[C@@H]2Oc3c(NC(=O)Nc4cccc5ccccc45)cccc3C(=O)N([C@@H](C)CO)C[C@H]2C)cc1Cl`: the relative growth is inactive: 1.
Regarding `C[C@H]1CN([C@@H](C)CO)C(=O)CCCn2cc(nn2)CO[C@@H]1CN(C)C(=O)Nc1ccc(C(F)(F)F)cc1`, the relative growth was inactive: 0.957.
As for `CN1C(=O)c2cc(NS(C)(=O)=O)ccc2OC[C@H]2O[C@@H](CC(=O)N3CCOCC3)CC[C@@H]21`, the relative growth was inactive: 0.998.
As for `C[C@@H]1CN([C@H](C)CO)C(=O)c2cc(NS(=O)(=O)c3ccccc3)ccc2O[C@H]1CN(C)S(=O)(=O)c1cccs1`, the figure is inactive: 1; as for `Cn1cnnc1Sc1c([N+](=O)[O-])ncn1C`, inactive: 0.894.
As for `C[C@@H]1CCCCO[C@H](CN(C)C(=O)Nc2ccccc2)[C@@H](C)CN([C@H](C)CO)C(=O)c2cc(NC(=O)c3ccncc3)ccc2O1`, the figure is inactive: 0.978; as for `C[C@@H]1CCCCO[C@@H](CN(C)C(=O)Nc2ccccc2)[C@@H](C)CN([C@@H](C)CO)C(=O)c2cc(NC(=O)Nc3ccccc3)ccc2O1`, inactive: 1.05.
As for `N[C@@H](CC(=O)Nc1ccc(Cl)cc1)C(=O)O`, the figure is inactive: 1.06.
Regarding `CO[C@@H]1CN(C)C(=O)c2cc(NS(=O)(=O)CC(F)(F)F)ccc2OC[C@H](C)N(Cc2cccnc2)C[C@@H]1C`, the relative growth is inactive: 0.971.
As for `COc1ccc(CN(C)C[C@@H]2OCCCC[C@@H](C)Oc3ccc(NC(=O)Nc4ccc(C(F)(F)F)cc4)cc3C(=O)N([C@@H](C)CO)C[C@@H]2C)cc1`, the figure is inactive: 0.979.
As for `C[C@@H]1CN([C@@H](C)CO)S(=O)(=O)c2ccc(C#Cc3ccccc3F)cc2O[C@H]1CN(C)CC1CCOCC1`, the figure is inactive: 1.
As for `C[C@H](CO)N1C[C@H](C)[C@@H](CN(C)C(=O)Nc2ccccc2)Oc2ccc(NC(=O)CCN3CCOCC3)cc2CC1=O`, the figure is inactive: 0.981; as for `C[C@H]1CN([C@@H](C)CO)C(=O)c2cccc(NS(=O)(=O)c3cccs3)c2O[C@H]1CN(C)Cc1ccc(-c2ccccc2)cc1`, inactive: 1.02.
As for `CCn1cc(C(=O)O)c(=O)c2cc(F)c(N3CCN(C(=S)Nc4cc(C(F)(F)F)ccc4Cl)CC3)cc21`, the relative growth is active: 0.0858.
As for `C[C@@H]1CCCCO[C@@H](CN(C)S(=O)(=O)c2cn(C)cn2)[C@@H](C)CN([C@H](C)CO)C(=O)c2cc(NC(=O)Nc3cccc4ccccc34)ccc2O1`, the relative growth was inactive: 1.02.
As for `CC(C)NC(=O)Nc1ccc2c(c1)CC(=O)N([C@@H](C)CO)C[C@@H](C)[C@H](CN(C)Cc1ccc(-c3ccccc3)cc1)O2`, the relative growth was inactive: 1.01.
As for `C[C@@H]1CCCCO[C@@H](CN(C)C(=O)Nc2ccc(F)cc2)[C@@H](C)CN([C@@H](C)CO)C(=O)c2cc(NC(=O)CCC(F)(F)F)ccc2O1`, the figure is inactive: 0.993.
